Assay results: paper PMC8026080, “Functional regulation of the structure-specific endonuclease FEN1 by the human cytomegalovirus protein IE1 suggests a role for the re-initiation of stalled viral replication forks” (PLoS Pathogens, 2021)
No constants are given. Whether binding was seen depends on the method and setting. For some of these results: In cells and extracts the contact can be indirect. Some results given as binding are weak or reduced against the parent protein; the word gives no strength.

Protein sequences, listed by entry. Tags and fused reporters are not part of them. Lines headed by an entry give the natural chain unless they say otherwise; changes in a name come on top. Residues count along the entry.
UniProt P39748: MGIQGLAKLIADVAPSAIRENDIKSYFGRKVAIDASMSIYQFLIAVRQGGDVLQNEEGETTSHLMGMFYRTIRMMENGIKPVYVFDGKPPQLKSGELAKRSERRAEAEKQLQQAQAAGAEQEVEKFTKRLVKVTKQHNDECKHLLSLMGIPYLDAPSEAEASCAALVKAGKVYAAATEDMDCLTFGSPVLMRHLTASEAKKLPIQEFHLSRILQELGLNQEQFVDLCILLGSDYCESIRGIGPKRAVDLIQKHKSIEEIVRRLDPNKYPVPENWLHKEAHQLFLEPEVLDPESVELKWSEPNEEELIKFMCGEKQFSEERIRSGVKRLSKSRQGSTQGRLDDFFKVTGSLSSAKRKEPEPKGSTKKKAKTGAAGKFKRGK
FLAG-FEN1 176–380: residues 176-380 of P39748

Columns and labels:
[1] = biological target: HCMV IE1 globular core region (amino acids 14 to 382) fused to the GAL4 DNA-binding domain (human cytomegalovirus) (UniProt P13202); assay: two-hybrid; library screen in yeast Y153: GAL4-DBD-IE1 14-382 (pGBT9) as bait, B lymphocyte cDNA library in pACT as prey; selection on HWL- agar with 10 mM 3-aminotriazole, then XGal filter lift assay
[2] = biological target: HCMV IE1 full length fused to the GAL4 DNA-binding domain (human cytomegalovirus) (UniProt P13202); assay: two-hybrid; pairwise test in yeast Y153: GAL4-AD fusion and GAL4-DBD fusion co-transformed, selection on medium lacking Trp and Leu, XGal filter assay for beta-galactosidase at 30°C
[3] = biological target: HCMV IE1 1–359 (IE1 core with deletion of a C-terminal helix) fused to the GAL4 DNA-binding domain (human cytomegalovirus) (UniProt P13202); assay: as above
[4] = biological target: HCMV IE1 globular core region (amino acids 14 to 382) fused to the GAL4 DNA-binding domain (human cytomegalovirus) (UniProt P13202); assay: as above
[5] = biological target: FLAG-IE1 1–382 (human cytomegalovirus) (UniProt P13202); assay: co-IP; HEK293T cotransfected with Myc- and FLAG-tagged constructs; lysis in CoIP buffer (50 mM Tris-HCl pH 8.0, 150 mM NaCl, 5 mM EDTA, 0.5% NP-40); IP with anti-FLAG M2 on protein-A-sepharose, 2 h at 4°C; Western blot with anti-Myc
[6] = biological target: FLAG-IE1 (full length) (human cytomegalovirus) (UniProt P13202); assay: as above
[7] = biological target: FLAG-FEN1 176–380 (UniProt P39748); assay: as above
[8] = biological target: FLAG-FEN1 (full length) (UniProt P39748); assay: as above

Flap endonuclease 1 fragment aa 176–380 fused to the GAL4 activation domain (from UniProt P39748 176-380) (domain or fragment)
binding [1]: binds | binding [2]: binds | binding [3]: no binding | binding [4]: binds

Myc-FEN1 176–380 (from UniProt P39748 176-380) (domain or fragment)
binding [5]: binds | binding [6]: binds

Myc-IE1 1–382 Helix 8 mut (from UniProt P13202 1-382) (domain or fragment)
binding [7]: binds

Myc-IE1 1–382 Y206A mut (from UniProt P13202 1-382) (domain or fragment)
binding [7]: binds

Myc-IE1 1–382 wildtype (from UniProt P13202 1-382) (domain or fragment)
binding [7]: binds | binding [8]: binds
